In paper PMC12264551 (Molecular Pharmacology, 2025) one finds −LogEC50 of PACAP, maximum rate of cAMP accumulation (GloSensor), COS-7 cells transfected with PAC1R, vehicle (Fig. 6B) (−LogEC50 (EC50 in M)) and −LogEC50 of PACAP, maximum rate of cAMP accumulation (GloSensor), COS-7 cells transfected with PAC1R, with ATP 1.5 mM (Fig. 6B) (−LogEC50 (EC50 in M)) data, which are given here for 1 substance.

The assay addresses pituitary adenylate cyclase-activating polypeptide receptor type 1 (human) (UniProt P41586).

For “pituitary adenylate cyclase-activating peptide (PACAP-38)”, the −LogEC50 of PACAP, maximum rate of cAMP accumulation (GloSensor), COS-7 cells transfected with PAC1R, vehicle (Fig. 6B) (−LogEC50 (EC50 in M)) amounted to 9.09 and the −LogEC50 of PACAP, maximum rate of cAMP accumulation (GloSensor), COS-7 cells transfected with PAC1R, with ATP 1.5 mM (Fig. 6B) (−LogEC50 (EC50 in M)) was found to be 10.
